According to paper PMC6919601, “Identification of Plasmodium dipeptidyl aminopeptidase allosteric inhibitors by high throughput screening” (PLoS ONE, 2019):
Several values for one entry are separate records, joined by “and”; a condition that tells them apart may be missing. Equal values may be shown once. The whole screen tested about 110,000 compounds, of which about 230 (0.21%) showed an effect of 50% or more. The list shows a part of the results.

target: DPAP1 (Plasmodium falciparum, UniProt Q8IIJ9); test: primary screen, percent inhibition; read by cleavage of a fluorogenic dipeptide substrate; higher = more effect of the substance; design: species or system P. falciparum D10 trophozoite lysates; single well
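Further: 30 min substrate incubation versus DMSO and 10 µM JCP410 controls.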

Chain of DPAP1 (Q8IIJ9 whole entry, looked up): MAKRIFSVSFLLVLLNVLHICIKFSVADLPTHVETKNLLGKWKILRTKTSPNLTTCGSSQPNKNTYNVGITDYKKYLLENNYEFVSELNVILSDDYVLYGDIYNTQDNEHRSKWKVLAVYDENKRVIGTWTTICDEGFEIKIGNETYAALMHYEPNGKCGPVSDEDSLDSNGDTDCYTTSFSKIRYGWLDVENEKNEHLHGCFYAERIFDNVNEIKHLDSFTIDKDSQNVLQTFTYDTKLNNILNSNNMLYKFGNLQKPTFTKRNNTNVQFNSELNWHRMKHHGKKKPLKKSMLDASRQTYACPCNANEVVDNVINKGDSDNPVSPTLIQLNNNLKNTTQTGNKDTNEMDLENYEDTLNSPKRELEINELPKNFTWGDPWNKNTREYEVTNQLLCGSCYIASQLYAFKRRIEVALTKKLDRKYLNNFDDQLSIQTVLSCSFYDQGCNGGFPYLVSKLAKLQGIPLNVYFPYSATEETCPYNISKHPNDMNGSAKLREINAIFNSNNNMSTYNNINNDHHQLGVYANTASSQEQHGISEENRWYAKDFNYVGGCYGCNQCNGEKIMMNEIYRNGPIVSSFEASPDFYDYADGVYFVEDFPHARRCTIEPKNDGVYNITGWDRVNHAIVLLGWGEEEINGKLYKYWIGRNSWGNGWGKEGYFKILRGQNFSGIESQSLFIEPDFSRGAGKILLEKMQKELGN

Point of comparison: `CCOc1ccc(C2c3c(oc4ccc(F)cc4c3=O)C(=O)N2c2nc(C)c(C(C)=O)s2)cc1` (stereo not shown), “% Inhibition @ 10 uM” value -3.13%. Against it:
- Cc1ccc(CNS(=O)(=O)c2ccc(CCN3C(=O)c4cccnc4C3=O)cc2)o1 — lower, -8.79%
- O=C(CSc1nc2ccccc2c2nc3ccccc3n12)NCc1ccco1 — higher, -2.21%
- Cc1ccc(-n2ncc(C(=O)N3CCC(C)CC3)c2C2CCN(C(=O)OC(C)(C)C)CC2)cc1 — higher, 6.68%
- COc1ccc(N2C(=O)CC(NCC(O)c3ccccc3)C2=O)cc1 (stereo not shown) — higher, 2.84%
- CCn1c2ccccc2n2c(SCCOc3ccccc3)nnc12 — higher, 1.23%
- CCOC(=O)c1c(C)[nH]c(C)c1S(=O)(=O)NC(CC)CN1CCOCC1 (stereo not shown) — higher, -0.342%
- CCCCO/C(O)=C1\C(C)=NC2=C(C(=O)CCC2)C1c1ccc(O)c(OCC)c1 (stereo not shown) — higher, 18%
- Cc1ccc(-c2onc(C)c2C)cc1S(=O)(=O)NCCc1sccc1C — lower, -5.48%
- COc1ccccc1C(=O)N1CCC(c2nc(-c3ccc(S(=O)(=O)N4CCCC4)cc3)no2)CC1 — higher, 2.05%
- O=C1CC(c2ccccc2C(F)(F)F)c2c(c3ccccc3oc2=O)O1 (stereo not shown) — higher, 1.32%
- CCC(C)NC(=O)CCN1C(=O)c2ccccc2C1=O (stereo not shown) — lower, -3.78%
- CC(C)C(NCCC(O)c1ccc(Br)cc1)C(=O)O (stereo not shown) — lower, -4.14%
- COc1ccc(CNC2=NC(=O)CC(C(=O)Nc3cc(C)cc(C)c3)S2)cc1 (stereo not shown) — higher, 17.2%
- CSCCC(NC(=O)C1CCC(C)CC1)C(=O)NCCc1ccccc1 (stereo not shown) — higher, -2.49%
- CC12CN(C(=O)c3ccccc3)C3(C#N)CC1CCC23C (stereo not shown) — higher, -1.98%
- Nc1nc(SCC(=O)Nc2ccc(F)cc2)sc1C(=O)Nc1ccc(F)cc1 — higher, 5.44%
- CNC(=S)N1N=C(c2cccs2)CC1c1ccc(F)cc1 (stereo not shown) — higher, 3.86%
- CNc1cnn(C23CC4CC(CC(C4)C2C(=O)O)C3)c(=O)c1Cl (stereo not shown) — higher, 5.84%
- Cc1ccc(NC(=O)C[n+]2ccc3ccccc3c2)c(C)c1 — higher, 7.84%
- O=C1CC(c2cccc(Cl)c2Cl)c2cc3c(cc2N1)OCO3 (stereo not shown) — lower, -7.48%
- O=C(O)CCP(=O)(O)CN1CCCCCC1 — lower, -7.15%
- O=C(Nc1ccc(Cl)c(Cl)c1)Nc1cc([N+](=O)[O-])ccc1OC(=O)Nc1ccc(Cl)c(Cl)c1 — higher, -0.216%
- Cc1cccc(-n2ncc3c(NCCc4ccccc4)ncnc32)c1 — higher, -2.49%
- CC(=O)c1ccc(NC(=O)CCN2C(=O)c3ccccc3C2=O)cc1 — higher, 19.4%
- Cc1cccc(-n2cc(-c3ccccc3)c3c(NCCN4CCOCC4)ncnc32)c1 — lower, -3.4%
- Cc1nc2nc(NC(=O)c3cccnc3)nn2c(C)c1Cl — higher, 0.401%
- CN1CCn2c1nc(N1CCCCC1)nc2=O — higher, 1.25%
- CC1Nc2nc(NC(=O)c3ccc[n+](C)c3)nc(O)c2N(C(=O)c2ccc[n+](C)c2)C1C (stereo not shown) — higher, 4.28%
- N#CC1=C(N)Oc2nc(S)nc(O)c2C12C(=O)Nc1ccccc12 (stereo not shown) — higher, -1.97%
- COCCNC(=O)Cn1cc(C(=O)c2ccccc2)c2ccccc21 — higher, -1.82%
- O=C(CSc1nc2ccccc2s1)NC1CCCC1 — higher, -1.05%
- N#Cc1ccc(NC(=O)Nc2ccc(Cl)cc2)cc1 — higher, 2.51%
- CCCN1C(=O)c2[nH]nc(-c3cc(C)ccc3O)c2C1c1ccc(O)c(OC)c1 (stereo not shown) — higher, 0.558%
- COc1ccc(NC(=O)CCC(=O)Nc2ccc(C)cc2)cc1 — lower, -5.92%
- CCOCCCNC(=O)c1cnn(-c2ccc(OC)cc2)c1C1CCN(C(=O)OC(C)(C)C)CC1 — lower, -4.22%
- C[C@]12CCCCC1CCC1C2CC[C@@]2(C)C1CC[C@@]2(O)CNCCO (stereo partly shown) — lower, -4.03%
- CC(=O)Nc1ccc(CN2CC=C(c3ccc(F)cc3)CC2)cc1 — higher, 3.15%
- COc1ccc(Cl)cc1NC(=O)CN(c1ccccc1)S(=O)(=O)c1ccc(C)cc1 — higher, 2.42%
- CC(C)C[C@H](NC(=O)c1coc(-c2ccc3c(c2)OCO3)n1)C(=O)NCC#N — higher, -2.35%
- N#CC1=C(N)OC2=C(C(=O)CC(c3ccccc3)C2)C1c1ccoc1 (stereo not shown) — higher, -1.98%
- Nc1nc(CS(=O)(=O)c2ccc(Cl)cc2)cs1 — higher, -0.9%
- CCN(CC)CCCNC(=O)c1ccc(C(C)(C)C)cc1 — higher, -1.82%
- COc1cc(C2CC(=O)OC3=C2C(=O)CC(C)(C)C3)cc(OC)c1OC (stereo not shown) — higher, -0.834%
- Cn1c(=O)c2c(-c3ccccc3)n(-c3cc(Cl)ccc3O)cc2n(C)c1=O — higher, 3.62%
- CN1CCN(c2c(S(=O)(=O)c3ccc(Cl)cc3)cnc3cc4c(cc23)OCCO4)CC1 — higher, -1.2%
- CN1C(=O)C(Cc2ccc3c(c2)OCO3)C(=O)N(C)C1=O — higher, -1.42%
- O=C(NC(=S)NCc1ccccc1)C12CC3CC(CC(C3)C1)C2 — higher, 0.058%
- O=C(NCc1cccnc1)c1ccc2c(c1)sc1nc(-c3ccc(F)cc3)cn12 — higher, -2.97%
- Cc1ccc(CNC(=O)Cc2c(C(=O)O)[nH]c3ccc(Cl)cc23)o1 — higher, 1.3%
- C=CCOc1ccc(Oc2nc(N(C)C)nc(N3CCCC3)n2)nn1 — higher, -1.31%
- Cc1cccc(Cn2c(S)nc3c2c(=O)[nH]c(=O)n3C)c1 — higher, -2.16%
- Cc1ccccc1C(=O)N(C)Cc1ccccc1 — lower, -4.4%
- Cc1ccccc1S(=O)Cc1ccc(C(=O)N2CCCCCC2)o1 (stereo not shown) — higher, 0.458%
- CCOC(=O)C1=C(CN2CCOCC2)NC(=O)NC1c1ccc(F)cc1 (stereo not shown) — higher, -2.48%
- Cc1cccc(C(=O)NC2CCSC2=O)c1 (stereo not shown) — higher, -1.62%
- Cc1nc2ccc(S(=O)(=O)N(CC(=O)Nc3ncccc3C)Cc3ccccc3)cc2s1 — lower, -6.11%
- Cc1ccc(Oc2nc3ccccn3c(=O)c2/C=C(\C#N)S(=O)(=O)c2ccc(Cl)cc2)c(C)c1 — lower, -5.1%
- Cc1ccc(-c2cn3nc(N4CCC(C(=O)NCc5cccnc5)CC4)sc3n2)cc1 — higher, 0.434%
- Cc1ccnc(NC(=O)COc2cc(C)c(Cl)c(C)c2)c1 — higher, 2.17%

`O=C(CN1C(=O)S/C(=C/c2c[nH]c3ccccc23)C1=O)N1CCN(c2ccccc2)CC1` was tested, and the “% Inhibition @ 10 uM” value was 7.33% and -0.519%.
